By IC50 is meant the dose at which the fit gives 50% viability; a fit beyond the top or the lowest dose is shown as a bound at that dose. AUC is the area under the same curve over the 256-fold range up to the top dose, as a fraction; the more sensitive the line, the further below 1. For some assays here: The top dose, if marked as inferred, comes from the curve model; the source does not state it.
Key:
Assay in all cases: Viability of human cancer cell lines after 72 h of drug (GDSC screen)
[1] = compound: CCc1cc(-c2n[nH]c(C)c2-c2ccc3c(c2)OCCO3)c(O)cc1O [CCT018159]; conditions: top dose 10 µM; top dose inferred
Procedure: (§1)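 Human cancer cell lines in 384-well plates, medium with 10% serum, drug for 72 h over a 256-fold dose range (nine 2-fold or five 4-fold steps up to the top dose). Adherent lines were fixed and stained with the nucleic acid dye Syto60, suspension lines read with resazurin; signal relative to control wells, capped at 0 and 100%. One two-parameter sigmoid per drug and line, fitted in a mixed model over all curves with the slope shared within a line.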

[2] = compound: CN(C)Cc1cccc(N=C(c2ccccc2)c2c(O)[nH]c3cc(C(=O)N(C)C)ccc23)c1 [BIX02189]; conditions: top dose 20 µM; top dose inferred
Procedure: as §1

[3] = compound: COc1cccc2cc(-c3nc([C@H]4CC[C@H](C(=O)O)CC4)n4ncnc(N)c34)[nH]c12 [OSI-027]; conditions: top dose 20 µM
Procedure: as §1

[4] = compound: CS(=O)(=O)c1ccc(C(=O)Nc2ccc(Cl)c(-c3ccccn3)c2)c(Cl)c1 [Vismodegib]; conditions: top dose 10 µM; top dose inferred
Procedure: as §1

[5] = compound: Cc1cnc(Nc2ccc(F)cc2Cl)nc1-c1c[nH]c(C(=O)N[C@H](CO)c2cccc(Cl)c2)c1 [VX-11e]; conditions: top dose 5.12 µM; top dose inferred
Procedure: as §1

[6] = compound: Cc1cnc(Nc2ccc(OCCN3CCCC3)cc2)nc1Nc1cccc(S(=O)(=O)NC(C)(C)C)c1 [TG101348]; conditions: top dose 10.24 µM
Procedure: as §1

[7] = compound: N#CC[C@H](C1CCCC1)n1cc(-c2ncnc3[nH]ccc23)cn1 [Ruxolitinib]
Procedure: as §1

[8] = compound: O=C(c1ccc(C(=O)N2CCC(N3CCCC3)CC2)c(Nc2ccccc2)c1)N1CCC(N2CCCC2)CC1 [UNC1215]; conditions: top dose 1 µM; top dose inferred
Procedure: as §1

[9] = compound: COC(=O)CNC(=O)C(=O)OC [Dimethyloxalylglycine]; conditions: top dose 4000 µM; top dose inferred
Procedure: as §1

Row | Cell Line | AUC [7] | IC50 [7] [µM] | other results
1 | AU565 (breast, adherent) |  |  | AUC [1]: 0.801; IC50 [1]: 5.52 µM; AUC [2]: 0.984; IC50 [2]: > 20 µM; AUC [3]: 0.755; IC50 [3]: 7.5 µM; AUC [4]: 0.984; IC50 [4]: > 10 µM; AUC [5]: 0.983; IC50 [5]: > 5.12 µM; AUC [6]: 0.973; IC50 [6]: > 10.2 µM
2 | SW1463 (large intestine, adherent, top dose 5.24 µM) | 0.978 | > 5.24 | 
3 | SW1573 (lung adenocarcinoma, adherent, top dose 5.24 µM) | 0.973 | > 5.24 | 
4 | SW1710 (bladder, adherent, top dose 5.24 µM) | 0.986 | > 5.24 | 
5 | SW1783 (glioma, adherent, top dose 5.24 µM) | 0.99 | > 5.24 | 
6 | SW1990 (pancreas, adherent, top dose 5.24 µM) | 0.985 | > 5.24 | 
7 | Saos-2 (osteosarcoma, adherent, top dose 5.24 µM) | 0.981 | > 5.24 | 
8 | SiHa (cervix, adherent, top dose 5.24 µM) | 0.986 | > 5.24 | 
9 | T47D (breast, adherent, top dose 5.24 µM) | 0.97 | > 5.24 | 
10 | T84 (large intestine, adherent, top dose 5.24 µM) | 0.989 | > 5.24 | 
11 | T98G (glioma, adherent, top dose 5.24 µM) | 0.989 | > 5.24 | 
12 | T-24 (bladder, adherent, top dose 5.24 µM) | 0.988 | > 5.24 | 
13 | T-T (oesophagus, adherent, top dose 5.24 µM) | 0.986 | > 5.24 | 
14 | TC-71 (Ewing sarcoma, adherent, top dose 5.24 µM) | 0.984 | > 5.24 | 
15 | TCCSUP (bladder, adherent, top dose 5.24 µM) | 0.985 | > 5.24 | 
16 | TE-1 (oesophagus, adherent, top dose 5.24 µM) | 0.977 | > 5.24 | 
17 | TE-4 (oesophagus, adherent, top dose 5.24 µM) | 0.981 | > 5.24 | 
18 | TE-5 (oesophagus, adherent, top dose 5.24 µM) | 0.983 | > 5.24 | 
19 | TE-6 (oesophagus, adherent, top dose 5.24 µM) | 0.986 | > 5.24 | 
20 | TE-8 (oesophagus, adherent, top dose 5.24 µM) | 0.983 | > 5.24 | 
21 | TE-9 (oesophagus, adherent, top dose 5.24 µM) | 0.987 | > 5.24 | 
22 | TE-10 (oesophagus, adherent, top dose 5.24 µM) | 0.982 | > 5.24 | 
23 | TE-11 (oesophagus, adherent, top dose 5.24 µM) | 0.99 | > 5.24 | 
24 | TE-12 (oesophagus, suspension, top dose 5.24 µM) | 0.981 | > 5.24 | 

Row | Cell Line | AUC [7] | IC50 [7] [µM] | other results
25 | TE-15 (oesophagus, suspension, top dose 5.24 µM) | 0.958 | > 5.24 | 
26 | TE-441-T (rhabdomyosarcoma, adherent, top dose 5.24 µM) | 0.983 | > 5.24 | 
27 | TGBC1TKB (biliary tract, adherent, top dose 5.24 µM) | 0.988 | > 5.24 | 
28 | TGBC11TKB (stomach, adherent, top dose 5.24 µM) | 0.992 | > 5.24 | 
29 | TGBC24TKB (biliary tract, adherent, top dose 5.24 µM) | 0.989 | > 5.24 | 
30 | TGW (neuroblastoma, adherent, top dose 5.24 µM) | 0.992 | > 5.24 | 
31 | TK10 (kidney, adherent, top dose 5.24 µM) | 0.981 | > 5.24 | 
32 | TK (B-cell lymphoma, suspension, top dose 5.24 µM) | 0.988 | > 5.24 | 
33 | TMK-1 (stomach, adherent, top dose 5.24 µM) | 0.985 | > 5.24 | 
34 | TOV-21G (ovary, adherent, top dose 5.24 µM) | 0.976 | > 5.24 | 
35 | TOV-112D (ovary, adherent, top dose 5.24 µM) | 0.969 | > 5.24 | 
36 | TT2609-C02 (thyroid, adherent, top dose 5.24 µM) | 0.984 | > 5.24 | 
37 | TT (thyroid, adherent, top dose 5.24 µM) | 0.983 | > 5.24 | 
38 | TUR (B-cell lymphoma, suspension, top dose 5.24 µM) | 0.859 | 3.81 | 
39 | TYK-nu (ovary, adherent, top dose 5.24 µM) | 0.984 | > 5.24 | 
40 | U031 (kidney, adherent, top dose 5.24 µM) | 0.978 | > 5.24 | 
41 | U251 (glioma, adherent, top dose 5.24 µM) | 0.987 | > 5.24 | 
42 | U-118-MG (glioma, adherent, top dose 5.24 µM) | 0.985 | > 5.24 | 
43 | U-266 (myeloma, semi-adherent) |  |  | AUC [4]: 0.948; IC50 [4]: > 10 µM; AUC [8]: 0.974; IC50 [8]: > 1 µM
44 | U-698-M (B-cell leukaemia, suspension, top dose 5.24 µM) | 0.987 | > 5.24 | 
45 | UACC-812 (breast, adherent, top dose 5.24 µM) | 0.99 | > 5.24 | 
46 | UACC-893 (breast, adherent, top dose 5.24 µM) | 0.981 | > 5.24 | 
47 | UM-UC-3 (bladder, adherent, top dose 5.24 µM) | 0.978 | > 5.24 | 
48 | UMC-11 (lung carcinoid, adherent, top dose 5.24 µM) | 0.991 | > 5.24 | 

Row | Cell Line | AUC [7] | IC50 [7] [µM] | other results
49 | UWB1.289 (ovary, adherent, top dose 5.24 µM) | 0.976 | > 5.24 | 
50 | VA-ES-BJ (soft tissue, adherent, top dose 5.24 µM) | 0.985 | > 5.24 | 
51 | VAL (B-cell lymphoma, suspension, top dose 5.24 µM) | 0.964 | > 5.24 | 
52 | VM-CUB-1 (bladder, adherent, top dose 5.24 µM) | 0.989 | > 5.24 | 
53 | VMRC-MELG (melanoma, adherent, top dose 5.24 µM) | 0.989 | > 5.24 | 
54 | VMRC-RCW (kidney, adherent) |  |  | AUC [2]: 0.977; IC50 [2]: > 20 µM; AUC [9]: 0.399; IC50 [9]: 135 µM; AUC [3]: 0.752; IC50 [3]: 6.21 µM; AUC [4]: 0.98; IC50 [4]: > 10 µM; AUC [5]: 0.966; IC50 [5]: > 5.12 µM; AUC [6]: 0.904; IC50 [6]: > 10.2 µM
55 | VMRC-RCW (kidney, adherent, top dose 5.24 µM) | 0.987 | > 5.24 | 
56 | VMRC-RCZ (kidney, adherent, top dose 5.24 µM) | 0.977 | > 5.24 | 
57 | WIL2-NS (lymphoid neoplasm, suspension, top dose 5.24 µM) | 0.926 | > 5.24 | 
58 | WM35 (melanoma, adherent, top dose 5.24 µM) | 0.982 | > 5.24 | 
59 | WM278 (melanoma, adherent, top dose 5.24 µM) | 0.982 | > 5.24 | 
60 | WM793B (melanoma, adherent, top dose 5.24 µM) | 0.967 | > 5.24 | 
61 | WM1552C (melanoma, adherent, top dose 5.24 µM) | 0.987 | > 5.24 | 
62 | WSU-DLCL2 (B-cell lymphoma, suspension, top dose 5.24 µM) | 0.993 | > 5.24 | 
63 | WSU-NHL (lymphoid neoplasm, suspension, top dose 5.24 µM) | 0.99 | > 5.24 | 
64 | YAPC (pancreas, adherent, top dose 5.24 µM) | 0.983 | > 5.24 | 
65 | YH-13 (glioma, adherent, top dose 5.24 µM) | 0.986 | > 5.24 | 
66 | YKG-1 (glioma, adherent, top dose 5.24 µM) | 0.986 | > 5.24 | 
67 | YMB-1-E (breast, adherent, top dose 5.24 µM) | 0.978 | > 5.24 | 
68 | YT (lymphoid neoplasm, suspension, top dose 5.24 µM) | 0.774 | 1.76 | 
69 | huH-1 (liver, adherent, top dose 5.24 µM) | 0.984 | > 5.24 | 
70 | no-10 (glioma, adherent, top dose 5.24 µM) | 0.978 | > 5.24 | 
71 | no-11 (glioma, adherent, top dose 5.24 µM) | 0.961 | > 5.24 | 
